# Results as given in the supplement of paper PMC8728848.
# This is one part of the list.
# Columns and labels:
# Assay in all cases: glycan array binding signal (z-score within array); higher = stronger binding
# Conditions in all cases: glycan notation: IUPAC condensed, linker removed
# Gal(a1-2)Gal = target: Gal(a1-2)Gal
# In short: (§1)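 The binding signal is a Z-score computed within each array and averaged over linkers. Arrays of the same protein sequence at different concentrations or buffers were also averaged together. Data originate from 3228 arrays in the Consortium for Functional Glycomics database, kept only where the protein sequence was available.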
# Gal(a1-3)Gal = target: Gal(a1-3)Gal
# In short: as §1
# Gal(a1-3)Gal(b1-3)GlcNAc = target: Gal(a1-3)Gal(b1-3)GlcNAc
# In short: as §1
# Gal(a1-3)Gal(b1-4)Glc = target: Gal(a1-3)Gal(b1-4)Glc
# In short: as §1
# Gal(a1-3)Gal(b1-4)GlcNAc = target: Gal(a1-3)Gal(b1-4)GlcNAc
# In short: as §1
# [1] = target: Gal(a1-3)Gal(b1-4)[Fuc(a1-3)]GlcNAc
# In short: as §1
# [2] = target: Gal(a1-3)Gal(b1-4)[Fuc(a1-3)]GlcNAc(b1-2)Man(a1-3)[Gal(a1-3)Gal(b1-4)[Fuc(a1-3)]GlcNAc(b1-2)Man(a1-6)]Man(b1-4)GlcNAc(b1-4)GlcNAc
# In short: as §1
# Gal(a1-3)GalNAc = target: Gal(a1-3)GalNAc
# In short: as §1
# [3] = target: Gal(a1-3)[Gal(a1-4)]Gal(b1-4)GlcNAc
# In short: as §1
# Gal(a1-4)Gal(b1-4)Glc = target: Gal(a1-4)Gal(b1-4)Glc
# In short: as §1
# Gal(a1-4)Gal(b1-4)GlcNAc = target: Gal(a1-4)Gal(b1-4)GlcNAc
# In short: as §1
# [4] = target: Gal(a1-4)Gal(b1-4)GlcNAc(b1-3)Gal(b1-4)Glc
# In short: as §1
# Gal(a1-4)GlcNAc = target: Gal(a1-4)GlcNAc
# In short: as §1
# Gal(a1-6)Glc = target: Gal(a1-6)Glc
# In short: as §1
# Gal(b1-2)Gal = target: Gal(b1-2)Gal
# In short: as §1
# Gal(b1-3)Gal = target: Gal(b1-3)Gal
# In short: as §1
# Gal(b1-3)Gal(b1-4)GlcNAc = target: Gal(b1-3)Gal(b1-4)GlcNAc
# In short: as §1
# [5] = target: Gal(b1-3)Gal(b1-4)GlcNAc(b1-2)Man(a1-3)[Gal(b1-3)Gal(b1-4)GlcNAc(b1-2)Man(a1-6)]Man(b1-4)GlcNAc(b1-4)GlcNAc
# In short: as §1
# Gal(b1-3)GalNAc = target: Gal(b1-3)GalNAc
# In short: as §1
# [6] = target: Gal(b1-3)GalNAc(a1-3)[Fuc(a1-2)]Gal(b1-4)Glc
# In short: as §1
# [7] = target: Gal(b1-3)GalNAc(a1-3)[Fuc(a1-2)]Gal(b1-4)GlcNAc
# In short: as §1
# [8] = target: Gal(b1-3)GalNAc(b1-3)Gal(a1-4)Gal(b1-4)Glc
# In short: as §1
# [9] = target: Gal(b1-3)GalNAc(b1-4)Gal(b1-4)Glc
# In short: as §1
# [10] = target: Gal(b1-3)GalNAc(b1-4)[Neu5Ac(a2-3)]Gal(b1-4)Glc
# In short: as §1
# Gal(b1-3)GlcNAc = target: Gal(b1-3)GlcNAc
# In short: as §1
# [11] = target: Gal(b1-3)GlcNAc(b1-2)Man(a1-3)[Gal(b1-3)GlcNAc(b1-2)Man(a1-6)]Man(b1-4)GlcNAc(b1-4)GlcNAc
# In short: as §1
# [12] = target: Gal(b1-3)GlcNAc(b1-2)Man(a1-3)[Gal(b1-3)GlcNAc(b1-2)Man(a1-6)]Man(b1-4)GlcNAc(b1-4)[Fuc(a1-6)]GlcNAc
# In short: as §1
# [13] = target: Gal(b1-3)GlcNAc(b1-3)Gal(b1-3)GlcNAc
# In short: as §1
# [14] = target: Gal(b1-3)GlcNAc(b1-3)Gal(b1-4)Glc
# In short: as §1
# [15] = target: Gal(b1-3)GlcNAc(b1-3)Gal(b1-4)GlcNAc
# In short: as §1
# [16] = target: Gal(b1-3)[Fuc(a1-4)]GlcNAc
# In short: as §1
# [17] = target: Gal(b1-3)[Fuc(a1-4)]GlcNAc(b1-2)Man(a1-3)[Gal(b1-3)[Fuc(a1-4)]GlcNAc(b1-2)Man(a1-6)]Man(b1-4)GlcNAc(b1-4)GlcNAc
# In short: as §1
# [18] = target: Gal(b1-3)[Fuc(a1-4)]GlcNAc(b1-2)Man(a1-3)[Gal(b1-3)[Fuc(a1-4)]GlcNAc(b1-2)Man(a1-6)]Man(b1-4)GlcNAc(b1-4)[Fuc(a1-6)]GlcNAc
# In short: as §1
# [19] = target: Gal(b1-3)[Fuc(a1-4)]GlcNAc(b1-3)Gal(b1-3)[Fuc(a1-4)]GlcNAc
# In short: as §1
# [20] = target: Gal(b1-3)[Fuc(a1-4)]GlcNAc(b1-3)Gal(b1-4)GlcNAc
# In short: as §1
# [21] = target: Gal(b1-3)[Fuc(a1-4)]GlcNAc(b1-3)Gal(b1-4)[Fuc(a1-3)]GlcNAc
# In short: as §1
# [22] = target: Gal(b1-3)[GlcNAc(b1-6)]GalNAc
# In short: as §1
# [23] = target: Gal(b1-3)[Neu5Ac(a2-6)]GalNAc
# In short: as §1
# [24] = target: Gal(b1-3)[Neu5Ac(a2-6)]GlcNAc(b1-6)Gal(b1-4)Glc
# In short: as §1
# [25] = target: Gal(b1-3)[Neu5Ac(b2-6)]GalNAc
# In short: as §1
# [26] = target: Gal(b1-4)GalNAc(a1-3)[Fuc(a1-2)]Gal(b1-4)GlcNAc
# In short: as §1
# [27] = target: Gal(b1-4)GalNAc(b1-3)[Fuc(a1-2)]Gal(b1-4)GlcNAc
# In short: as §1
# Gal(b1-4)Glc = target: Gal(b1-4)Glc
# In short: as §1
# Gal(b1-4)Glc6S = target: Gal(b1-4)Glc6S
# In short: as §1
# Gal(b1-4)GlcNAc = target: Gal(b1-4)GlcNAc
# In short: as §1
binder,measurement,setting,value
"Flo11 (Saccharomyces cerevisiae), Q1H8S8 (protein) MGSSHHHHHHSSGLVPRGSHMFPTALVPRGSSEGTSCNSIVNGCPNLDFNWHMDQQNIMQYTLDVTSVSWVQDNTYQITIHVKGKENIDLKYLWSLKIIGVTGPKGTVQLYGYNENTYLIDNPTDFTATFEVYATQDVNSCQVWMPNFQIQFEYLQGSAAQYASSWQWGTTSFDLSTGCNNYDNQGHSQTDFPGFYWNIDCDNNCGGTKSS",glycan array binding signal (z-score),Gal(a1-2)Gal,-0.506
same,glycan array binding signal (z-score),Gal(a1-3)Gal,-0.49
same,glycan array binding signal (z-score),Gal(a1-3)Gal(b1-3)GlcNAc,-0.5
same,glycan array binding signal (z-score),Gal(a1-3)Gal(b1-4)Glc,-0.504
same,glycan array binding signal (z-score),Gal(a1-3)Gal(b1-4)GlcNAc,-0.506
same,glycan array binding signal (z-score),[1],-0.499
same,glycan array binding signal (z-score),[2],1.3
same,glycan array binding signal (z-score),Gal(a1-3)GalNAc,-0.49
same,glycan array binding signal (z-score),[3],-0.506
same,glycan array binding signal (z-score),Gal(a1-4)Gal(b1-4)Glc,-0.507
same,glycan array binding signal (z-score),Gal(a1-4)Gal(b1-4)GlcNAc,-0.506
same,glycan array binding signal (z-score),[4],2.42
same,glycan array binding signal (z-score),Gal(a1-4)GlcNAc,-0.503
same,glycan array binding signal (z-score),Gal(a1-6)Glc,-0.499
same,glycan array binding signal (z-score),Gal(b1-2)Gal,-0.51
same,glycan array binding signal (z-score),Gal(b1-3)Gal,-0.483
same,glycan array binding signal (z-score),Gal(b1-3)Gal(b1-4)GlcNAc,-0.46
same,glycan array binding signal (z-score),[5],-0.509
same,glycan array binding signal (z-score),Gal(b1-3)GalNAc,1.73
same,glycan array binding signal (z-score),[6],-0.028
same,glycan array binding signal (z-score),[7],1.2
same,glycan array binding signal (z-score),[8],2.47
same,glycan array binding signal (z-score),[9],2.27
same,glycan array binding signal (z-score),[10],2.88
same,glycan array binding signal (z-score),Gal(b1-3)GlcNAc,-0.506
same,glycan array binding signal (z-score),[11],-0.505
same,glycan array binding signal (z-score),[12],-0.494
same,glycan array binding signal (z-score),[13],1.86
same,glycan array binding signal (z-score),[14],1.71
same,glycan array binding signal (z-score),[15],1.97
same,glycan array binding signal (z-score),[16],-0.505
same,glycan array binding signal (z-score),[17],-0.405
same,glycan array binding signal (z-score),[18],-0.424
same,glycan array binding signal (z-score),[19],-0.505
same,glycan array binding signal (z-score),[20],-0.501
same,glycan array binding signal (z-score),[21],-0.502
same,glycan array binding signal (z-score),[22],-0.464
same,glycan array binding signal (z-score),[23],-0.473
same,glycan array binding signal (z-score),[24],-0.496
same,glycan array binding signal (z-score),[25],-0.494
same,glycan array binding signal (z-score),[26],-0.456
same,glycan array binding signal (z-score),[27],-0.449
same,glycan array binding signal (z-score),Gal(b1-4)Glc,-0.503
same,glycan array binding signal (z-score),Gal(b1-4)Glc6S,-0.505
same,glycan array binding signal (z-score),Gal(b1-4)GlcNAc,-0.502
